# From PMC4336329 (PLoS ONE, 2015)
# Among all 310,000 compounds or so, about 2,200 (0.71%) showed an effect of 50% or more. Effects have a minus sign here. The list shows a part of the results.
# Biological target: human ether-à-go-go-related gene (hERG) potassium channel (human, UniProt Q12809)
# Experiment: primary screen, population patch clamp on CHO cells stably expressing hERG
# Chain of human ether-à-go-go-related gene (hERG) potassium channel (Q12809 whole entry, looked up): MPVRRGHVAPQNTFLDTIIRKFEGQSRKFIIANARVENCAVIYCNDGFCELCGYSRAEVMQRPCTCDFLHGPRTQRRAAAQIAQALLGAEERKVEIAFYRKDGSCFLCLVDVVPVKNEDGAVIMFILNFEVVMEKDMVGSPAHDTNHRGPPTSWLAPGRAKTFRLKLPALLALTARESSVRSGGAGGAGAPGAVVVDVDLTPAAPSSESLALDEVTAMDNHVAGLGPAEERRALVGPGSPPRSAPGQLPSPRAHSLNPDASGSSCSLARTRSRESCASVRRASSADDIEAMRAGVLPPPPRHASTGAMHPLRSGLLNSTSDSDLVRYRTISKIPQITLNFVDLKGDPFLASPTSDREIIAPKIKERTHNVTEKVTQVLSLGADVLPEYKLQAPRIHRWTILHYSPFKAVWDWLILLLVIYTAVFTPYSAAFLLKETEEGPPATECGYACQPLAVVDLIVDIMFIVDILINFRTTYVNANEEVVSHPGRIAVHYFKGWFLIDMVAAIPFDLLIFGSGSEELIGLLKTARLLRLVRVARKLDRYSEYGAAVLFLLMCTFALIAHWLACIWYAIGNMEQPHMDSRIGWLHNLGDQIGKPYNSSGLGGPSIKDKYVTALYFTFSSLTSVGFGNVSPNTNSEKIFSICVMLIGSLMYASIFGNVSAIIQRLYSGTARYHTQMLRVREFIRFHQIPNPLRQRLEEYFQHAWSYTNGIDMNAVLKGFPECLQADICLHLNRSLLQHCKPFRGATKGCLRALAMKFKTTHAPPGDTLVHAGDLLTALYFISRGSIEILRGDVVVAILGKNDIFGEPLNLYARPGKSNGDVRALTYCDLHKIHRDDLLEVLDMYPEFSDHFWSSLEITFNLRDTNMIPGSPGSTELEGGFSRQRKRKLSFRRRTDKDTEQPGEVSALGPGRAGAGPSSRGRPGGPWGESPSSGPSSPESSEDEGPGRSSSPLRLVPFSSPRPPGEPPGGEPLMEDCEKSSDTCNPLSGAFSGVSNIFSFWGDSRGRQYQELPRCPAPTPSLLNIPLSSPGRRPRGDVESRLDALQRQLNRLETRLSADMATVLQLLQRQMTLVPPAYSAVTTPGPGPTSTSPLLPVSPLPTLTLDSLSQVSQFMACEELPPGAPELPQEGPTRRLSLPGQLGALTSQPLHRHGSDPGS
row,SMILES,"hERG current change (%, negative = inhibition) at 1uM"
1,COC(=O)C1CC(c2c(OC)cc(OC)cc2OC)=NO1 (stereo not shown),9.26%
2,CSCCC(=O)N1CCCC(CO)(CCCc2ccccc2)C1 (stereo not shown),12.1%
3,Cc1ccc(CNC(=O)Cn2c(=O)n(-c3ccccc3)c(=O)c3sccc32)cc1,3.22%
4,COC(=O)/C=C/C(=O)N1CCN(c2ccccc2)CC1,-4.62%
5,O=C1CC(/C=C/c2cccnc2)=Nc2ccccc2N1,10.3%
6,Cc1cc(=O)[nH]c(CCl)n1,16.8%
7,Clc1ccc(/C=N\Nc2ccccc2)cc1,13.6%
8,CC(C)OCCCn1c(=O)c2ccccc2n2c(CCC(=O)NC3CCN(Cc4ccccc4)CC3)nnc12,6.09%
9,C#CCNc1cc(C)nc2ncnn12,6.02%
10,CC(C)(C)OC(=O)N1CCC(CNC(=O)c2ccc(F)cc2)CC1,10.3%
11,CC(OC(=O)Cc1ccc(Cl)cc1)C(=O)NCCC1=CCCCC1 (stereo not shown),2.14%
12,O=C(O)COc1nsnc1N1CCOCC1,12.3%
13,CCC(Oc1ccc2ccccc2c1)C(=O)O (stereo not shown),9.45%
14,Cc1cccc(NC(=S)NCc2ccccn2)c1,16.6%
15,CCN(CC(=O)Nc1ccccc1C(F)(F)F)C(=O)CN1C(=O)NC(C)(c2ccccc2)C1=O (stereo not shown),20.5%
16,O=C1c2ccccc2-c2cccc(C(=O)N3CCCCC3)c21,9.76%
17,COc1cccc(-n2nc3c(-n4ncc(C#N)c4N)nnc(C)c3c2C)c1,1.81%
18,O=C(O)/C=C/c1cn(-c2ccccc2)nc1-c1ccc2c(c1)OCCO2,3.62%
19,Cc1ccc(C)c(N2CCN(S(=O)(=O)c3ccc4c(c3)NC(=O)CO4)CC2)c1,14.8%
20,COc1cc(NC(=O)c2ccc3c(c2)S(=O)(=O)N=C2CCCCCN23)cc(OC)c1,10.3%

row,SMILES,"hERG current change (%, negative = inhibition) at 1uM"
1,CN(C)c1ccc(N2CN=C3SCC(=O)N3C2)cc1,13%
2,NS(=O)(=O)c1ccc(CCNC(=O)c2ccc(NS(=O)(=O)c3ccc4[nH]c(=O)[nH]c4c3)cc2)cc1,9.43%
3,COc1ccccc1CNc1ccc(Br)cn1,7.94%
4,CCOC(=O)c1cccc(NC(=O)CN(c2ccc(C)cc2)S(=O)(=O)c2c(C)noc2C)c1,12.9%
5,COc1ccc(C2c3c(-c4ccccc4O)n[nH]c3C(=O)N2Cc2ccco2)cc1 (stereo not shown),5.39%
6,O=C(NN=C1C2CC3CC1CC(Cl)(C3)C2)c1cccs1,11.3%
7,C=CCN1C(=O)c2ccc(C(=O)N3CCN(S(=O)(=O)c4cc(C)ccc4C)CC3)cc2C1=O,3.79%
8,Cc1ccc(NC(=O)CN2C(=O)S/C(=C\c3cccn3-c3cccc(C(=O)O)c3)C2=O)cc1C,14.3%
9,Cc1ccc(NC(=S)NCCc2c[nH]c3ccccc23)c(C)c1,4.24%
10,COc1ccc(S(=O)(=O)Nc2cc(C)on2)cc1OC,10.3%
11,S=C(N/N=C/c1ccc2c(c1)OCO2)NC1CC2CCC1C2 (stereo not shown),16%
12,Cc1cc(-c2ccccc2)c2c(=O)n(-c3ccccc3)[nH]c2n1,13.2%
13,CC(C)N1CCC2(CC1)Oc1ccc(Br)cc1C1CC(c3cccnc3)=NN12 (stereo not shown),-2.29%
14,CCCCn1c(SCC(=O)NCC2CCCO2)nc2ccc(N3CCOCC3)cc2c1=O (stereo not shown),-10.4%
15,OC1(c2ccc(F)cc2)CN(c2ccccc2)C2=[N+]1CCS2.[Br-] (stereo not shown),12.9%
16,CCOC(=O)c1cccc(NC(=O)CN(c2ccc(C)cc2)S(=O)(=O)c2c(C)n[nH]c2C)c1,2.14%
17,O=C(CCS(=O)(=O)Cc1ccc(Cl)cc1)NCCc1ccccc1,2.18%
18,Cc1ccc(NC(=O)CSCc2cc(=O)n3cc(C)sc3n2)cc1,14.2%
19,O=C(CSc1nnc(Cc2ccccc2)o1)N1CCOCC1,11.7%
20,COc1ccccc1-c1nc(-c2ccccn2)no1,17.9%

row,SMILES,"hERG current change (%, negative = inhibition) at 1uM"
1,Cc1ccc(Sc2cc(C(=O)NCCCN(C)C)c3ccccc3n2)cc1,2.23%
2,O=C(CSc1nnc(CNc2ccc(Cl)cc2)o1)Nc1nc2ccccc2s1,6.79%
3,CCOC(=O)C/C(C)=N/NC(=O)COc1ccccc1C,3.23%
4,COc1ccccc1NC(=O)NCCN1CCCCC1,5.82%
5,Cc1ccc(-n2c(N)c(C(N)=O)sc2=S)cc1,6.78%
6,Cl.NC(=O)c1ccc(OCCC(O)N2CC=C(c3ccc(F)cc3)CC2)cc1 (stereo not shown),-53%
7,O=C(N/N=C/c1ccco1)c1cc(Br)ccc1OCc1ccccc1,10.1%
8,CCc1ccc(N=c2c([N+](=O)[O-])nn(-c3ccccc3)n2O)cc1,-5.97%
9,CCn1c(C)nnc1SCC(=O)Nc1ccc(Cl)cc1,10.8%
10,Cc1cc(C2=CC(=O)C[C@H](c3ccc4c(c3)OCO4)C2)ccc1F,9.21%
11,COC1CCN(Cc2c(C(=O)N3CCN(C4CCCCC4)CC3)nc3ccccn23)CC1,12.3%
12,O=C(Nc1cccc(S(=O)(=O)N2CCCCCC2)c1)c1ccc(=O)[nH]c1,2.88%
13,Cc1ccc(S(=O)(=O)NC(=O)c2ccc(-c3ccc(C)c4ccccc34)o2)cc1,2.14%
14,COc1cc(C(=S)N2CCOCC2)cc(OC)c1OC(=O)c1ccc(C)cc1,8.36%
15,COc1ccc(OC)c(NC(=O)Nc2ccc(O)c3ccccc23)c1,14%
16,C/C(=N/Nc1nc(-c2ccccc2F)nc2ccccc12)c1ccccc1O,3.53%
17,CC(=O)c1cccc(-n2nnnc2SCC(=O)N2CCCC2)c1,7.78%
18,O=C(Nc1nc(-c2ccccc2)cs1)c1ccc(=O)[nH]c1,0.955%
